{
  "source": "PubChem BioAssay AID624202",
  "about": "(National Center for Advancing Translational Sciences (NCATS), 2012)",
  "note": "Screen size: about 380,000 compounds; about 4,000 (1.1%) were called active. Inconclusive means that the source gave no clear call. Such entries were picked first, then a sample of the others. The call rests on the fitted dose curve; in most records, active means well fitted activation curve with a large enough effect; inconclusive means small, poorly fitted or top-dose-only effect; inactive means no such curve, though single readings can be large or run the other way. Potencies beside an inconclusive call are fits to weak or partial responses and may not hold up. Potency means the concentration at half of the fitted maximal effect; tags describe the fitted curve by direction and shape.",
  "data": [
    {"assay": "qHTS Assay to Identify Small Molecule Activators of BRCA1 Expression; further: nearly all actives have a fitted effect of over 80% in size", "settings": "MCF7-BRCA1-FFLuc reporter, luminescence, 48 h; activation: at 46.1 µM (top of the series), scaled: vehicle 0%, 10 µM genistein 100% unless noted", "text": "Functionally, BRCA1 has been implicated in a wide array of cellular activities, including DNA damage repair, cell-cycle checkpoint control, growth inhibition, apoptosis, transcriptional regulation, chromatin remodeling, protein ubiquitylation, and mammary stem cell self-renewal and differentiation. Reduction in BRCA1 levels is associated with an increase in tumor growth and resistance to anti-estrogenic agents, such as tamoxifen, while an increase in BRCA1 expression leads to cell growth arrest and apoptosis. […] The frequent loss of BRCA1 expression in invasive breast cancers in the absence of somatic mutation has been attributed to numerous mechanisms, including hypermethylation of the BRCA1 promoter, exaggerated ubiquitylation of BRCA1 protein, and improper intracellular localization. […] Basal-like breast cancers (BLBCs) are associated with an aggressive clinical course, resistance to chemotherapy, and typically lack expression of estrogen receptor (ER), progesterone receptor (PR), and epidermal growth factor receptor 2 (HER2). BLBCs account for 10-17% of all breast cancers, have few therapeutic options, and are considered the biggest unmet need in the treatment of breast cancer. Conversely, tumors which maintain expression of functional BRCA1 are almost uniformly luminal type cancers, and are accordingly associated with more indolent clinical courses, responsiveness to endocrine therapies, and improved survival.\nAs such, it is possible that an increase in BRCA1 expression would enable cellular differentiation and restore tumor suppressor function, resulting in delayed tumor growth and less aggressive, more treatable breast cancers. The long term goal of this proposal is to develop a novel prevention or therapeutic agent for breast cancer patients. To accomplish this goal, the overall objective of this proposal is to access the resources provided by the NIH Molecular Libraries Roadmap Initiative and the Molecular Libraries Probe Production Centers Network (MLPCN) to discover and develop new chemical activator probes that will increase BRCA1 expression and function.\nNIH Molecular Libraries Probe Production Network [MLPCN]\nNIH Chemical Genomics Center [NCGC]\nPI Name: Lisa Harlan-Williams, University of Kansas Medical Center\n5microl of MCF7-BRCA1-FFLuc cell suspension (400 cells/microl in phenol-red free MEM) are dispensed into Greiner white solid bottom 1536-well assay plates, yielding a final well density of 2000 cells/well. Plates are incubated for 2 hours at 37 degrees C in 5% humidified CO2 to allow cell attachment. Compounds are then transferred via Kalypsys pin tool equipped with 1536-pin array (10nl slotted pins, V&P Scientific, San Diego, CA). The plates are then incubated at 37 degrees C in 5% humidified CO2 for 48 hours. The NCGC in-house luciferase substrate reagent, Buglite, is then added (2.5microl) and plates incubated for 15 minutes, before being transferred to a ViewLux high-throughput CCD imager (PerkinElmer) wherein single end-point measurements of luminescence are acquired using a clear filter. The positive control compound, genistein, will be pinned into dedicated control columns on each plate, including a 16-point 1:3 titration in duplicate, as well as a 10microM maximum activation control, allowing for the normalization of screening activity. DMSO will be pinned into a separate column as a negative control.\nAll screening operations will be performed on a fully integrated robotic system (Kalypsys, San Diego, CA) containing one RX-130 and two RX-90 anthropomorphic robotic arms (Staubli, Duncan, SC). Library plates will be screened starting from the lowest and proceeding to the highest concentration. Vehicle-only plates, with DMSO being pin-transferred to columns 5-48, will be inserted uniformly at the beginning and the end of each library in order to monitor and record any shifts in the background, which can be affected by reagent dispensers or loss in enzyme activity over time. […]", "values": [
      {"smiles": "COCCCN=Cc1c(C)[nH]n(-c2ccc(Br)c(C)c2)c1=O", "Potency": "inconclusive: 0.501 µM [activator, full curve, poor fit]"},
      {"smiles": "Cc1nn(-c2ccc(C(=O)OC(C)C)cc2)c(C)c1[N+](=O)[O-]", "Potency": "inconclusive: 11.2 µM [activator, partial curve, poor fit]"},
      {"smiles": "Cc1ccc(/C(N)=N/OC(=O)Cc2cccs2)cc1", "Potency": "active: 11.2 µM"},
      {"smiles": "O=C(Nc1nc2ccccc2s1)c1c(F)cccc1Cl", "Potency": "active: 10 µM"},
      {"smiles": "CN(C)S(=O)(=O)c1ccc(C(=O)NCCOc2ccc(F)cc2)cc1", "Potency": "active: 11.2 µM"},
      {"smiles": "CSc1cccc(NC(=S)N2CCC(c3ccccc3)C2)c1", "note": "(centres undefined)", "Potency": "inconclusive: 15.8 µM [activator, single point]"},
      {"smiles": "CCCCn1cnc2c(=O)[nH]c(N)nc21", "activation": "inactive: -7.33%"},
      {"smiles": "COc1ccc(CCn2c(C)cc3c(c2=O)C(c2ccncc2)C(C#N)=C(N)O3)cc1OC", "note": "(centres undefined)", "activation": "inactive: -15.4%"},
      {"smiles": "CCOC(=O)c1c(NC(=O)CSc2cn(CCNC(=O)c3c(F)cccc3F)c3ccccc23)sc2c1CCC2", "activation": "inactive: 0%"},
      {"smiles": "Cc1ccc(N(CCC#N)C(=O)COC(=O)c2cc(C)oc2C)cc1", "activation": "inactive: 3.74%"},
      {"smiles": "NC(=O)COc1ccccc1C(=O)Nc1ccccc1", "activation": "inactive: 0%"},
      {"smiles": "Cc1ccc(-c2nc(C(=O)NCc3ccccc3Cl)c3n2CCCCC3)cc1", "activation": "inactive: -49.4%"},
      {"smiles": "Cc1ccc(-c2nn(-c3ccccc3)cc2CO)cc1", "Potency": "active: 7.94 µM"},
      {"smiles": "CCOC(=O)c1nn(-c2ccc(Br)cc2)cc1C(=O)c1cccc2ccccc12", "Potency": "inconclusive: 14.1 µM [activator, single point]"},
      {"smiles": "COc1ccccc1N1CCN(/N=C\\c2ccc(C)o2)CC1", "Potency": "inconclusive: 14.1 µM [activator, partial curve, poor fit]"},
      {"smiles": "O=C(Nc1ccc(-c2nc3ccccc3[nH]2)cc1)C1CCCN(Cc2ccn[nH]2)C1", "note": "(centres undefined)", "Potency": "inconclusive: 11.2 µM [activator, partial curve, poor fit]"},
      {"smiles": "CCc1nn(CCCC(=O)N2CCN(c3cccc(OC)c3)CC2)c(=O)c2cc3occc3n12", "Potency": "inconclusive: 35.5 µM [activator, single point]"},
      {"smiles": "CN(C)CCNC(=S)Nc1ccc(-c2nc3ccccc3[nH]2)cc1", "Potency": "inconclusive: 1.58 µM [activator, partial curve, poor fit]"},
      {"smiles": "O=C(NCCCc1ccccc1)c1ccccc1", "Potency": "active: 10 µM"},
      {"smiles": "CC(C)c1ccccc1NC(=O)c1cccc(NC(=O)c2ccccc2)c1", "activation": "inactive: -0.959%"},
      {"smiles": "COc1ccc(C2C(C(=O)c3ccc(C)o3)=C(O)C(=O)N2c2cc(C)on2)cc1OC", "note": "(centres undefined)", "activation": "inactive: 9.57%"},
      {"smiles": "Cc1nn(-c2ccccc2)c(Cl)c1/C=N/Nc1ccc(Cl)c(C(=O)O)c1", "activation": "inconclusive: -85.9% [activator]"},
      {"smiles": "S=C(NCCCc1ccccc1)NC1CCCCC1", "Potency": "inconclusive: 17.8 µM [activator, single point]"},
      {"smiles": "Cc1ccc(NC(=O)c2cc([N+](=O)[O-])ccc2N2CCOCC2)cc1S(=O)(=O)N1CCOCC1", "activation": "inactive: -32.2%"},
      {"smiles": "O=C(CN1CCCC1)Nc1ccc(NC(=O)Nc2ccccc2Cl)cc1", "Potency": "active: 11.2 µM"},
      {"smiles": "CC(C)CNC(=O)CCCc1ccccc1", "Potency": "inconclusive: 11.2 µM [activator, partial curve, poor fit]"},
      {"smiles": "C=C(C)CNC(=S)Nc1nc2c(cc1C(=O)OCC)CCCC2", "Potency": "active: 7.08 µM"},
      {"smiles": "CN(Cc1cc(-c2ccccc2)on1)C(=O)c1cc(COc2c(F)cccc2F)on1", "Potency": "active: 11.2 µM"},
      {"smiles": "CN1CCN(Cc2c(O)ccc3cc(Br)ccc23)CC1", "activation": "inactive: 3.45%"},
      {"smiles": "CCn1ncc(-c2csc(N)n2)c1C", "Potency": "inconclusive: 31.6 µM [activator, single point]"},
      {"smiles": "CC(=O)N1CCN(CC(=O)Nc2ccccc2C(=O)Nc2ccccc2)CC1", "activation": "inactive: -0.489%"},
      {"smiles": "Cc1cc(C)n2c(Br)c(CSc3nc4ccccc4o3)nc2n1", "Potency": "inconclusive: 10 µM [activator, partial curve, poor fit]"},
      {"smiles": "COc1ccc(C2=CSC3=C(C(=O)c4cccc(S(=O)(=O)N(C)C)c4)CCN23)cc1", "activation": "inactive: -11.5%"},
      {"smiles": "COc1ccc2c(c1)[nH]c1c(=O)n(CC3CCCO3)cnc12", "note": "(centres undefined)", "Potency": "inconclusive: 14.1 µM [activator, partial curve, poor fit]"},
      {"smiles": "CCCN1CNC(=S)N(c2ccccc2C)C1", "activation": "inactive: 2.48%"},
      {"smiles": "COc1ccc2cc3c(N)nn(C(=O)c4ccccc4Cl)c3nc2c1", "Potency": "inactive"},
      {"smiles": "N#Cc1ccsc1NC(=O)COc1ccc(-c2nnco2)cc1", "Potency": "inconclusive: 12.6 µM [activator, partial curve, poor fit]"},
      {"smiles": "CCCCN1C(=O)C(=O)N(CC(=O)c2cc(C)n(C3CC3)c2C)C1=O", "Potency": "inconclusive: 11.2 µM [activator, partial curve, poor fit]"},
      {"smiles": "COC(=O)c1ccc(NC(=O)c2ccc3c(c2)OCO3)cc1", "Potency": "inconclusive: 3.16 µM [activator, full curve, poor fit]"},
      {"smiles": "CCNC(=S)N/N=C/c1cccc(C)c1", "Potency": "active: 10 µM"},
      {"smiles": "O=C(Nc1ccc2c(c1)OCCO2)c1cc2ccccc2o1", "Potency": "inconclusive: 2.51 µM [activator, partial curve, poor fit]"},
      {"smiles": "O=C(O)c1ccc(N/N=C/c2cn(-c3ccccc3)nc2-c2cccs2)cc1", "activation": "inconclusive: 100% [activator]"},
      {"smiles": "C=CCSc1n[nH]c(-c2ccc(OCCCC)cc2)n1", "Potency": "active: 7.94 µM"},
      {"smiles": "O=C(O)c1cc(NC(=O)c2ccc([N+](=O)[O-])cc2)cc(NC(=O)c2ccc([N+](=O)[O-])cc2)c1", "activation": "inactive: -8.58%"},
      {"smiles": "CCC(=O)Nc1cccc(-c2nc3ccc(C)cc3o2)c1", "Potency": "inconclusive: 2.51 µM [activator, full curve, poor fit]"},
      {"smiles": "O=c1[nH]c(/C=C/c2ccccc2F)nc2ccccc12", "Potency": "inconclusive: 0.501 µM [activator, full curve, poor fit]"},
      {"smiles": "Cc1ccc(C(=O)Nc2cccc(-c3ccc(N4CCOCC4)nn3)c2)cc1[N+](=O)[O-]", "Potency": "inconclusive: 3.98 µM [activator, full curve, poor fit]"},
      {"smiles": "Cc1nc2cc(NC(=O)Nc3nccs3)ccc2n1C", "Potency": "inconclusive: 0.794 µM [activator, full curve, poor fit]"},
      {"smiles": "CCCCCn1nc(C)c(/C=N/NC(=O)c2ccoc2C)c1C", "Potency": "inconclusive: 11.2 µM [activator, partial curve, poor fit]"}
    ]}
  ]
}
